The whole screen tested about 310,000 compounds, of which about 14,000 (4.5%) showed an effect of 50% or more. Effects have a minus sign here. The list shows a part of the results.
Molecular target: human ether-à-go-go-related gene (hERG) potassium channel (human, UniProt Q12809)
Experiment: primary screen, population patch clamp on CHO cells stably expressing hERG
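Further: peak tail current of the secondary pulse compared with the same well before compound.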

Sequence of human ether-à-go-go-related gene (hERG) potassium channel (Q12809 whole entry, looked up): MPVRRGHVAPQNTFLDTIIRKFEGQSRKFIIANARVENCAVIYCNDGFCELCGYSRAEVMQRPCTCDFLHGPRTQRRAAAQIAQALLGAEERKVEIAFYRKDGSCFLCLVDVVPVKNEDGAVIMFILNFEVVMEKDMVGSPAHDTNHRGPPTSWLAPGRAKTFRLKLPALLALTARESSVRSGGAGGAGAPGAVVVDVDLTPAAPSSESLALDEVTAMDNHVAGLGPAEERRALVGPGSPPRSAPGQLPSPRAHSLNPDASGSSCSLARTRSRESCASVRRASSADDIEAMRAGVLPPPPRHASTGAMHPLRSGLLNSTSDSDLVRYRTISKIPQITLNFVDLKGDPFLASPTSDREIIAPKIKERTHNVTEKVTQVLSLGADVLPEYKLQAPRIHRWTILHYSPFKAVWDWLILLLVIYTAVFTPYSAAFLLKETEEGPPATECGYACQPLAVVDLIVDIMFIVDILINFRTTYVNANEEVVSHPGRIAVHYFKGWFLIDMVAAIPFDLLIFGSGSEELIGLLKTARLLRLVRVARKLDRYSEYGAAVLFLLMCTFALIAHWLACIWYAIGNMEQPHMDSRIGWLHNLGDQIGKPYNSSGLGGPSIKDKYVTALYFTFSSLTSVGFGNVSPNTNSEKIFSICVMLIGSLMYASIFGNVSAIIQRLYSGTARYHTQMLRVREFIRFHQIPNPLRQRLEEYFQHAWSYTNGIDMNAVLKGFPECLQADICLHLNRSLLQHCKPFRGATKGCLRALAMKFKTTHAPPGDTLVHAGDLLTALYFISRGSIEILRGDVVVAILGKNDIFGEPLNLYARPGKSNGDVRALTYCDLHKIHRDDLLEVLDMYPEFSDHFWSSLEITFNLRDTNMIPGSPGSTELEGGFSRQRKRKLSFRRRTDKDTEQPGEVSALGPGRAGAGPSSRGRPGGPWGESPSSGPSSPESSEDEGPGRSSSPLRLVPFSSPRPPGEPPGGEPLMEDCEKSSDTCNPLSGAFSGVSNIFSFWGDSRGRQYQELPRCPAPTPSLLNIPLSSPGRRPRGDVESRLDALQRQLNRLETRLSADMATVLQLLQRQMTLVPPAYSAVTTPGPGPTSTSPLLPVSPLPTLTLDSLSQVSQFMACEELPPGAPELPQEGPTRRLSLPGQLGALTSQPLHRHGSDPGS

| Structure (SMILES) | hERG current change (%, negative = inhibition) at 10uM [%] |
| --- | --- |
| COc1cc(OC)cc(-c2sc3ccc(OC)cc3c2C#CCCO)c1 | 10.5 |
| O=C1Nc2ccccc2C(O)(C(=O)NCc2ccco2)N1c1ccc(Cl)c(Cl)c1 (centres unmarked) | -15.3 |
| CCOc1ccc2oc(C(=O)NCC(C)(C)CN(C)C)c(C)c2c1.Cl | -54.5 |
| COc1ccccc1NC(=O)c1ccc2c(c1)C(=O)N(Cc1ccco1)C2=O | 9.96 |
| Cc1ccccc1NC(=O)Cc1nc(COC(=O)c2cc(Cl)ccc2O)cs1 | 15.3 |
| COc1cc(/C=C(/C#N)C(=O)NCc2ccccc2)cc(OC)c1OC | -24 |
| COc1cccc(OC)c1OCCN1CCN(C(=O)c2ccco2)CC1.Cl | -16.2 |
| COc1cc(NC(=O)CC2NCCNC2=O)cc(OC)c1 (centres unmarked) | 19.2 |
| O=C(Nc1cc(=O)[nH]c2ncnn12)c1ccc(Cl)cc1Cl | -9.89 |
| CSc1nnc2c3ccccc3n(Cc3ccccc3)c2n1 | 25.8 |
| Cc1ccc(NC(=S)NCCN2CCOCC2)cc1C | -5.31 |
| Cc1ccc(C)c(NC(=O)COC(=O)c2ccc3c(c2)OCO3)c1 | 22.8 |
| CN(C)c1cccc2c(S(=O)(=O)N3CCOCC3)cccc12 | -5.82 |
| CCCn1nc(NS(=O)(=O)c2cccc3nonc23)c2cc3cccc(C)c3nc21 | -10.7 |
| O=C(CN1C(=O)S/C(=C/c2cccnc2)C1=O)N1CCOCC1 | 8.12 |
| CCc1sc(C(=O)Nc2ncccc2O)cc1C | -2.28 |
| N#CCCCn1c(=O)oc2ccccc21 | 3.97 |
| CC1CC(C)CN(C(=O)CSc2nnc(CSc3ncccn3)n2C)C1 (centres unmarked) | 3.88 |
| Cc1cc(NC(=O)CSCC(=O)N2CCN(c3cccc(C)c3C)CC2)no1 | -27.7 |
| CCC(Oc1ccc(C)cc1)C(=O)Nc1ccc2c(c1)n(C)c(=O)n2C (centres unmarked) | 5.6 |
| CC1CC(C)CN(C(=O)c2ccc(S(=O)(=O)N3CCCCC3)cc2)C1 (centres unmarked) | 9.86 |
| COc1ccccc1COc1ccc2c(C)c(CCC(=O)O)c(=O)oc2c1C | 18.1 |
| COc1ccc(CC(=O)N/N=C/c2cccnc2)cc1OC | 11.7 |

| Structure (SMILES) | hERG current change (%, negative = inhibition) at 10uM [%] |
| --- | --- |
| COc1cc(NS(=O)(=O)c2ccc(N/C=C(\C=O)c3nc4ccccc4o3)cc2)nc(OC)n1 | 8.85 |
| O=C(NCc1ccc(F)cc1)C(c1ccco1)N(C(=O)c1csnn1)C1CC1 (centres unmarked) | 0.323 |
| COCCCN1C(=O)c2[nH]nc(-c3cc(C)cc(C)c3O)c2C1c1ccc(O)c(OC)c1 (centres unmarked) | -10.3 |
| O=C(NCc1ccccc1)c1ccc(S(=O)(=O)NCc2ccco2)cc1 | -11.3 |
| N#Cc1c(OCC(=O)c2ccccc2)nc2c(c1-c1ccco1)CCc1ccccc1-2 | -1.51 |
| CCN(CC)C(=O)CSc1nc2cc3c(cc2c(=O)n1CCCC(=O)NCCc1ccc(OC)c(OC)c1)OCO3 | -8.7 |
| CC(OC(=O)c1ccc2ncsc2c1)C(=O)N(C)C1CCCCC1 (centres unmarked) | 5.34 |
| Cc1ccc(C(=O)NCCc2cc3ccc(C)c(C)c3[nH]c2=O)cc1[N+](=O)[O-] | -15.6 |
| COC(=O)c1sccc1NC(=O)c1ccc(C)cc1 | 18.9 |
| CCC(Oc1ccccc1)C(=O)Nc1cc(C(F)(F)F)ccc1N1CCOCC1 (centres unmarked) | 13.4 |
| Cc1[nH]ccc(=O)c1OCC(=O)O | 17.8 |
| CCOc1ccc(S(=O)(=O)N2CCC(C(=O)OC(C)C(=O)NC3CCCCC3C)CC2)cc1 (centres unmarked) | -14.6 |
| Cc1[nH]c2ccccc2c1CN1CCN(c2ccccn2)CC1 | -52.7 |
| O=C1CCCC(O)=C1C=Nc1ccc(O)cc1 | 14.6 |
| COc1ccc2c(c1)cc1c(=O)n(CC(=O)NCCCN3CCOCC3)nc(C)n12 | 8.95 |
| Cl.N=c1ccn(Cc2ccccc2Cl)cc1 | 13.1 |
| O=[N+]([O-])c1ccc(OCc2cnc(Cl)s2)c([N+](=O)[O-])c1 | -25.7 |
| Cc1ccnc2nc(C(=O)Nc3nnc(CC(C)C)s3)nn12 | 3.42 |
| O=C(O)c1ccccc1Nc1ccccc1 | 21.7 |
| Cc1ccc(S(=O)(=O)ON=C2CCN(S(=O)(=O)c3ccccc3)CC2)cc1 | 19 |
| Nc1nc(SCC(=O)NCc2ccc(F)cc2)[nH]c(=O)c1NC(=O)c1ccc(Cl)cc1 | 5.38 |
| COC(=O)C1=C(NC(=O)c2ccc(Br)cc2)CCS1 | 27.4 |
| Cc1ccc(NC(=O)CNc2ccc(N3CCOCC3)cc2)cc1S(=O)(=O)N(C)C | -30.8 |

| Structure (SMILES) | hERG current change (%, negative = inhibition) at 10uM [%] |
| --- | --- |
| Cc1ccc(N2CC(C(=O)N3CCC4(CC3)CC(=O)c3ccccc3O4)CC2=O)cc1C (centres unmarked) | -71.3 |
| S=c1[nH]nc(-c2cc(-c3ccccc3)n[nH]2)n1/N=C/c1cccs1 | 24.2 |
| COc1cccc(OCC(=O)NNC(=O)c2ccc3ccccc3c2)c1 | 27.4 |
| CCN(CC)c1ccc(/C=N/NC(=O)C2CC2)cc1 | -14.2 |
| Cc1ccc(S(=O)(=O)NC(=O)N(CCC#N)Cc2ccccc2)cc1 | 13.5 |
| O=C1C2C(c3cccc(/C=C/c4ccccc4)c3)CC=CC2C(c2ccc(C(F)(F)F)cc2)N1Cc1ccccc1 (centres unmarked) | 8.53 |
| O=C(NCCCn1ccnc1)c1cc2nc(-c3ccc(Br)cc3)cc(C(F)(F)F)n2n1 | -62.8 |
| O=C(c1ccc2c(c1)OCCO2)C1CCN(S(=O)(=O)c2cccc(F)c2)CC1 | -18.7 |
| Cn1cc(CC(=O)NCc2ccc(F)cc2)c2ccccc21 | 5.76 |
| COc1ccccc1/C=C/C(=O)NCc1ccccn1 | 8.76 |
| N#C[C@@H]1N(Cc2ccccc2)C(=O)[C@H]2CC3C=CC21O3 (some centres unmarked) | -11.3 |
| Cc1cccc(NC(=S)N(CCCN2CCOCC2)Cc2cn(C)c3ccccc23)c1 | -10.8 |
| Cc1ncoc1C(=O)N1CCCC(CCC(=O)NCc2ccc(F)c(F)c2)C1 (centres unmarked) | 14.6 |
| CCC(C)[C@H](NC(=O)Nc1cccc(OC)c1)C(=O)OC (some centres unmarked) | 15.9 |
| C/C(=N/NC(=O)CNC(=O)c1cccnc1)c1ccc([N+](=O)[O-])cc1 | -14.2 |
| COC(=O)CSc1ccnc2cc(Cl)ccc12 | 9.81 |
| CCCn1c(=O)[nH]c2ccccc21 | 13.9 |
| N#CCN(N=Nc1ccccc1)c1ccccc1 | 8.98 |
| CCn1c(=NC(=O)COc2ccccc2)sc2cccc(F)c21 | 15.2 |
| O=C(CCc1ccccc1)Nc1ccc(N2CCOCC2)c(Cl)c1 | -27.4 |
| Oc1ccc(/C=N/Nc2cccc3cccnc23)c(O)c1 | -1.82 |
| Cc1ccc2c(c1)NCC(C(=O)NC1CCC(C)CC1)O2 (centres unmarked) | 6.16 |
| O=C(NC1CCN(Cc2cccc([N+](=O)[O-])c2)CC1)c1ccccc1 | -53.7 |

| Structure (SMILES) | hERG current change (%, negative = inhibition) at 10uM [%] |
| --- | --- |
| COc1ccc(Cl)c(Cn2c(NCC(C)O)nc3c2c(=O)n(C)c(=O)n3C)c1 (centres unmarked) | 0.12 |
| CCCSc1nc2c(c(=O)[nH]c(=O)n2C)n1C | 2.58 |
| CN(CC(=O)Nc1cccc(F)c1)C(=O)c1csc2c1CCCC2 | 4.83 |
| Cc1ccc(NC(=O)NC2CC(=O)N(c3ccc4c(c3)OCCO4)C2)cc1F (centres unmarked) | 1.62 |
| N#CCCN(C(=O)COC(=O)C1=NNC(=O)CC1)c1ccccc1 | 15.3 |
| CCC(CC)c1nnc(NC(=O)c2ccc(N3CCCC3=O)cc2)s1 | -8 |
| CC(C)(C)NS(=O)(=O)c1ccc(NC(=O)C2CCCO2)cc1 (centres unmarked) | 3.42 |
| CN1C(=O)CC(N2CCN(c3ccc(Cl)cc3)CC2)C1=O (centres unmarked) | -23.6 |
| c1ccc(OCCOc2cccc3cccnc23)cc1 | -17.3 |
| COc1ccc(S(=O)(=O)Nc2ccc(S(=O)(=O)N3CCOCC3)cc2)cc1 | -10.5 |
| CCOc1cc(CN2CCSCC2)ccc1O | -4.22 |
| CCOc1ccc(CCNC(=O)c2cc(S(=O)(=O)N3CCOCC3)ccc2C)cc1OCC | 1.87 |
| Cc1ccc(OCC(=O)Nc2ccc(C)c(S(=O)(=O)N3CCCCCC3)c2)c([N+](=O)[O-])n1 | -32.2 |
| COC(=O)c1cccc(NC(=O)CSc2nnc(-c3ccco3)o2)c1 | 5.49 |
| Cc1cc(C(=O)CN2c3cccc4cccc(c34)S2(=O)=O)c(C)n1C | 3.63 |
| COc1ccc(NC(=O)c2ccc(CNS(=O)(=O)c3cccc(OC)c3)cc2)cc1 | 1.5 |
| COc1ccc(OC)c(C2CC(=O)OC3=C2C(=O)CC(C)(C)C3)c1 (centres unmarked) | 0.996 |
| O=S(=O)(c1ccc(F)cc1)N1CC=C(c2ccccc2)CC1 | 1.9 |
| COc1ccc2c(c1)C(C)=CC(C)(C)N2S(=O)(=O)c1ccc(C)cc1 | -0.468 |
| COc1ccc(CCNc2cc(N3CCN(C(=O)c4ccccc4OC)CC3)ccc2[N+](=O)[O-])cc1OC | 14.8 |

From article PMC4336329 (PLoS ONE, 2015)
